In PubChem BioAssay AID504706 (National Center for Advancing Translational Sciences (NCATS), 2011):
In all, about 320,000 compounds went through this assay and about 200 (0.062%) were called active. This list was built around the results that the source calls inconclusive (neither active nor inactive); the mix of calls is not that of the screen. Calls follow the shape of the dose curve; as a rule, active = well fitted activation curve with a large enough effect; inconclusive = small, poorly fitted or top-dose-only effect; inactive = no such curve, though single readings can be large or run the other way. No potency is given beside an inconclusive call; the fits are too rough.

assay: qHTS assay for re-activators of p53 using a Luc reporter; details: H1299 p53-A138V BP100-luciferase reporter, luminescence, 24 h; series mostly up to 92.2 µM; also: nearly all actives have a fitted effect of over 45% in size
How it was run: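 p53-null H1299 cells stably carrying temperature-sensitive p53-A138V and a BP100-luciferase reporter were pinned with compounds (4-point, 1:5 series) and held 24 hrs at 37 deg C. Luminescence was read 10 min after detection reagent.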
Potency is read from the fitted curve at half-maximal effect; tags tell the direction and shape of the fitted curve.

SMILES	Potency
Cc1ccc(-c2cc(C(=O)NCc3cccs3)no2)cc1	inconclusive [activator, single point]
O=C(NNC(=O)c1ccc(Cl)cc1Cl)c1cccs1	inconclusive [activator, partial curve, poor fit]
O=C(N=Nc1c(O)n(Cc2ccccc2)c2ccccc12)c1ccc(O)cc1	inconclusive [activator, partial curve, poor fit]
COc1cccc(Nc2nnc(SCC(=O)Nc3sccc3C(N)=O)s2)c1	inactive
CCOC(=O)c1c(NC(=O)CSc2nnnn2-c2ccc3c(c2)OCCO3)sc(C)c1C	inactive
Cc1cccc(NC(=O)c2ccc([N+](=O)[O-])cc2Cl)n1	inconclusive [activator, partial curve, poor fit]
Clc1ccc(-c2cc(CSc3ccccc3)on2)cc1	inconclusive [activator, full curve, poor fit]
O=C(Cn1nnc(-c2ccccc2F)n1)Nc1ccc2c(c1)OCCO2	inconclusive [activator, partial curve, poor fit]
CN(C)S(=O)(=O)c1ccc(C(=O)Nc2ccc3c(c2)CCC3)cc1	inactive
Cc1cc[n+]2c3c(cccc13)CCC2	inactive
O=C(CSc1nnc(-c2ccccn2)n1-c1ccc(Cl)cc1)Nc1ccc2c(c1)OCO2	inactive
CC(C)(C)C1CCc2c(sc(NC(=O)c3ccncc3)c2C(N)=O)C1 (stereo unspecified)	inconclusive [activator, partial curve, poor fit]
O=C1/C(=C\c2ccccc2)SC(=S)N1CCC(=O)N1CCCCC1CCO (stereo unspecified)	inconclusive [activator, partial curve, poor fit]
CN(C)Cc1ccc(CNC(=O)COc2ccc3ccccc3c2)cc1	inactive
COc1ccc(C(=O)Nc2ccc([N+](=O)[O-])cn2)c(OC)c1	inconclusive [activator, partial curve, poor fit]
COc1ccc(C(=O)Cc2ccc(OC)c(OC)c2)cc1	inconclusive [activator, full curve, poor fit]
O=C(CSc1nnc(SCc2cccc3ccccc23)s1)N/N=C/C=C/c1ccccc1[N+](=O)[O-]	inconclusive [activator, partial curve, poor fit]
CCS(=O)(=O)N1Cc2ccccc2CC1C(=O)Nc1nnc(C2CC2)s1 (stereo unspecified)	inconclusive [activator, partial curve, poor fit]
CCOc1ccccc1C(=O)N[C@H](C(=O)Nc1nc2c(s1)CCCC2)C(C)C	inconclusive [activator, partial curve, poor fit]
Cc1ccc(Nc2nc(Cl)nc(NC3CCCCC3)n2)cc1	inconclusive [activator, single point]
CCOC(=O)c1[nH]c2ccc(C)cc2c1N	inconclusive [activator, full curve, poor fit]
CC(=O)Nc1ccc(S(=O)(=O)NC(CSc2ccc(C(=O)O)cc2[N+](=O)[O-])C(=O)O)cc1 (stereo unspecified)	inactive
CN(CC(=O)Nc1ccc(Cl)cc1)C(=O)CCc1nc2sc3c(c2c(=O)[nH]1)CCCC3	inactive
Cn1cccc1/C=C1\SC(=Nc2ccc(O)cc2)NC1=O	inconclusive [activator, partial curve, poor fit]

SMILES	Potency
CCOC(=O)C1(CCOc2ccccc2)CCN(Cc2cccc(-n3cccn3)c2)CC1	inactive
COc1cc(NC(=O)C/C(C)=N/NC(=O)c2ccccn2)c(OC)cc1Cl	inconclusive [activator, partial curve, poor fit]
Cc1cccc(NC(=O)C2CCN(S(=O)(=O)c3ccc4ccccc4c3)CC2)n1	inactive
O=C(Nc1cccc(NC(=O)c2sc3ccccc3c2Cl)c1)c1ccco1	inconclusive [activator, single point]
CN(C)c1cccc(C(=O)NN2C(=O)NC3(CCCCC3)C2=O)c1	inconclusive [activator, full curve]
COc1ccc(C(=O)Nc2cccc(OC(=O)c3ccco3)c2)cc1	inconclusive [activator, full curve, poor fit]
O=[N+]([O-])c1cccc(NC(=S)N2CCc3ccccc32)c1	inconclusive [activator, partial curve, poor fit]
Cc1ccc(S(=O)(=O)/N=C(\N)Nc2nc(C)c3cc(C)ccc3n2)cc1	inactive
COCCn1c(SCC(=O)N2CCCCCC2)nc2c(c1=O)SCC2	inconclusive [activator, partial curve, poor fit]
COc1cccc(/C=N/Nc2ncc(C(F)(F)F)cc2Cl)c1O	inconclusive [activator, single point]
Cc1noc2ncnc(N3CCN(c4cccc(Cl)c4)CC3)c12	inactive
Cc1ccc(/C=N/NC(=O)C2COc3ccccc3O2)s1 (stereo unspecified)	inconclusive [activator, partial curve, poor fit]
CCOC(=O)COc1ccccc1C1Nc2ccccc2C(=O)N1c1cccc(Cl)c1 (stereo unspecified)	inactive
CC1CCC(NC(=O)CCNC(=O)c2ccc(Br)cc2)CC1 (stereo unspecified)	inconclusive [activator, partial curve, poor fit]
CCCCOC(=O)C1=C(C)Nc2nnnn2C1c1ccccc1Cl (stereo unspecified)	inactive
O=C1c2ccccc2CN1CCNC(=S)NC1CCCCC1	inactive
CCN(C[C@H]1N[C@@](C)(C(=O)OC)[C@H]2C(=O)N(C)C(=O)[C@@H]12)C(=O)COC	inactive
CCn1nccc1C(=O)Nc1ccc(Cl)cn1	inconclusive [activator, single point]
COc1ccc(OC)c(C(=O)COC(=O)c2ccc([N+](=O)[O-])o2)c1	inconclusive [activator, single point]
CCCn1c(CC)nc([N+](=O)[O-])c1Sc1ccc(C)cc1	inconclusive [activator, single point]
C=CCc1ccccc1OCCn1nnc2ccccc21	inconclusive [activator, single point]
CCOC(=O)c1c(Cc2ccc(Cl)cc2)c[nH]c1C	inconclusive [activator, partial curve, poor fit]
COc1ccc(N(CC(=O)Nc2ccc3c(c2)OCO3)S(=O)(=O)c2ccccc2)c(OC)c1	inactive
COc1ccc(NC(=O)c2ccccc2NC(=O)CSc2ccc(Cl)cc2)cc1	inconclusive [activator, full curve, poor fit]

SMILES	Potency
O=C(NNC(=S)Nc1ccc(F)cc1F)c1ccco1	inconclusive [activator, partial curve]
CSCCC(=O)N1CCCC(N2CCN(c3cccc(C(F)(F)F)c3)CC2)C1 (stereo unspecified)	inconclusive [activator, single point]
O=C(Cn1nc(C(F)F)cc1C(F)F)NNC(=S)Nc1ccc([N+](=O)[O-])cc1	inactive
COc1cc(SC)ccc1C(=O)Nc1ncc(C)s1	inactive
CSC1=NCCN1C(=O)c1ccc(Br)o1	inconclusive [activator, partial curve, poor fit]
COCCCNC(=O)c1c[nH]c2ccc(S(=O)(=O)N3CCC4(CC3)OCCO4)cc2c1=O	inactive
Cc1cccc(N=Nc2c(O)[nH]c3ccc(F)cc23)c1	inconclusive [activator, partial curve, poor fit]
CC(C)Oc1ccc(C(=O)NNC(=O)c2ccccc2C(=O)O)cc1	inconclusive [activator, partial curve, poor fit]
Clc1ccc(CSc2nnc3ccccn23)c(Cl)c1	inconclusive [activator, single point]
Cc1cc(C)c2[nH]c3nc(SCC(=O)O)nnc3c2c1	inactive
CCOc1cc(CNc2ccc3c(c2)OCCO3)cc(Br)c1OCC	inconclusive [activator, partial curve]
Cc1cc(Cl)nc(-c2ccccc2)n1	inactive
COC(=O)c1ccc(CSc2nc3c(cnn3-c3ccc(Cl)cc3)c(=O)[nH]2)o1	inconclusive [activator, partial curve, poor fit]
CCc1ccc2c(CN(CC)Cc3nc4ccccc4c(=O)[nH]3)cc(=O)oc2c1	inconclusive [activator, partial curve, poor fit]
Cc1ccc(Nc2nc(N)nc(CN3CCc4ccccc4C3)n2)cc1	inactive
Cc1cc(N)ccc1N=Nc1c(C)n(C)n(-c2ccccc2)c1=O	inconclusive [activator, partial curve, poor fit]
Cc1ccc(CNc2cc(C(=O)O)ccc2Cl)s1	inconclusive [activator, partial curve, poor fit]
Nc1ncnc(NCc2ccc(F)cc2)c1[N+](=O)[O-]	inactive
Cc1cccc(C(=O)NC2CCCCCCC2)c1	inconclusive [activator, full curve, poor fit]
Nc1nc2ccccc2n1/N=C/c1ccc2c(c1)OCO2	inactive
Cc1ccc(-c2ccc(CCC(=O)O)o2)cc1	inactive
Cc1ccc(C(=O)N2CCCCCC2)cc1Br	inconclusive [activator, single point]
CCCc1cc(=O)[nH]c(SCCc2ccccc2)n1	inactive
